According to the RNAGym collection of RNA variant scans (doi:10.7554/elife.90254):
Read counts are not given, so values of variants with three or more changes are uncertain.

B1: LINE1-full (parent)
chain: UACGUAGGUGGUUUUCCCCUGAUAGUGCUAAGGGGGCCUGGAAGUUUGGACUGGGCAGAGCUCAACACAGCGUGGCAAAGUGGCUGUGGCUAGACUGCCUCUCUGGAUUCCUCGUCACUCAGCAGGGCAUCUCUGAGAGAAAUGCC

Variants of: B1
Assay: self-cleavage, relative activity (ratio to wild type); higher = more cleavage; in vitro, sequencing; the parent is a self-cleaving ribozyme

Row | Variant | self-cleavage
1 | UACGUAGGCGGUUUUCCCCUGAUAGUGCUAAGGGGGCCUGGAAGUUUGGACUGGGCAGAGCUCUACACAGCGUGGCAAAGUGGCUGUGGCUAGACUGCCUCUCUGGAUUCCUCGUCACUCAGCAGGGCAUCUCUGAGAGAAACGCC [U9C A64U U143C] | 0.78
2 | UACGUAGGCGGUUUUCCCCUGAUAGUGCUAAGGGGGCCUGGAAGUUUGGACUGGGCAGGGCUCAACACAGCGUGGCAAAGUGGCUGUGGCUAGACUGCCUCUCUGGAUUCCUCGUCACUCAGCAGGGCAUCUCUGAGUGAAAUGCC [U9C A59G A138U] | 0.2
3 | UACGUAGGCGGUUUUCCCCUGAUAGUGCUAAGGGGGCCUGGAAGUUUGGACUGGGCUGAGCUCAACACAGCGUGGCAAAGUGGCUGUGGCUAGACUGCCUCUCUGGAUUCCUCGUCACUCAGCAGGGCAUCUCUGAAAGAAAUGCC [U9C A57U G137A] | 0.25
4 | UACGUAGGAGGUUUUCCCCUGAUAGUGCUAAGGGGGCCUGGAAGUUUGGACUGGGCAGAGCUCAACACAGCGUGGCAAAGUGGCUGUGGCUAGACUGCCCCUCUGGAUUCCUCGUCACCCAGCAGGGCAUCUCUGAGAGAAAUGCC [U9A U100C U119C] | 1.48
5 | UACGUAGGCGGUUUUCCCCUGAUAGUGCUAAGGGGGCCUGGAAGUUUGGACUGGGCGGAGCUCAACACAGCGUGGCAAAGUGGCUGUGGCUAGACUGCCUCUCUGGUUUCCUCGUCACUCAGCAGGGCAUCUCUGAGAGAAAUGCC [U9C A57G A107U] | 0.62
6 | UACGUAGGCGGUUUUCCCCUGAUAGUGCUAAGGGGGCCUGGAAGUUUGGACUGGGCGGAGCUCAACACAGUGUGGCAAAGUGGCUGUGGCUAGACUGCCUCUCUGGAUUCCUCGUCACUCAGCAGGGCAUCUCUGAGAGAAAUGCC [U9C A57G C71U] | 0.19
7 | UACGUAGGCGGUUUUCCCCUGAUGGUGCUAAGGGGGCCUGGAAGUUUGGACUGGGCAGAGCUCAACACAGCGUGGCAAAGUGGCCGUGGCUAGACUGCCUCUCUGGAUUCCUCGUCACUCUGCAGGGCAUCUCUGAGAGAAAUGCC [U9C A24G U85C A121U] | 0
8 | UACGUAGGCGGUUUUCCCCUGAUAGUGCUAAGGGGGCCUGGAAGUUUGGACUGGGCAGAGCUCAGCACAGCGUGGCAAAGUGGCUGUGGCUAGACUGCCCCUCUGGAUUCCUCGUCACUCAGCAGGGCAUCUCUGAGAGAAAUGCC [U9C A65G U100C] | 0
9 | UACGUAGGAGGUUUUCCCCUGAUAGUGCUAAGGGGGCCUGGAAGUUUGGACUGGGCAGAGCUCAACACAGCGUGGCAAAGUGGCUGUGGCUAGACUGCCCCUCUGGAUUCCUCGUCACACAGCAGGGCAUCUCUGAGAGAAGUGCC [U9A U100C U119A A142G] | 1.78
10 | UACGUAGGAGGUUUUCCCCUGAUAGUGCUAAGGGGGCCUGGAAGUUUGGACUGGGCAGAGCUCAACACAGCGUGGCAAAGUGGCUGUGGCUAGACUGCCUCUCUGGAUUCCUCGUCACGCAGCAGGGCAUCCCUGAGAGGAAUGCC [U9A U119G U132C A140G] | 0.48
11 | UACGUAGGCGGUUUUCCCCUGAUAGUGCUAAGGGGGCCUGGAGGUUUGGACUGGGCAGAGCUCAACACUGCGUGGCAAAGUGGCUGUGGCUAGACUGCCUCUCUGGAUUCCUCGUCACUCAGCAGGGCAUCUCUGAGAGAAAUGCC [U9C A43G A69U] | 0
12 | UACGUAGGCGGUUUUCCCCUGAUAGUGCUAAGGGGGCCUGGGAGUUUGAACUGGACAGAGCUCAACACAGCGUGGCAAAGUGGCUGUGGCUAGACUGCCUCUCUGGAUUCCUCGUCACUCAGCAGGGCAUCCCUGAGAGAAAUGCC [U9C A42G G49A G55A U132C] | 0.14
13 | UACGUAGGCGGUUUUCCCCUGAUAGUGCUAAGGGGGCCUGGAGGUUUGGACUGGGCAGAGCUCAACACAGCGUGGCAAAGUGGCUGUGGCUAGACUGCCUCUCUGGAUUCCUCGUCACUCAGCAGGGCAUCCCUGAGAGAAAUGCC [U9C A43G U132C] | 0.66
14 | UACGUAGGCGGUUUUCCCCUGAUAGUGCUAAGGGGGCCUGGGAGUUUGGACUGGGCAGAGCCCAACACAGCGUGGCAAAGUGGCUGUGGCUAGACUGCCUCUCUGGAUUCCUCGUCACUCAGCAGGGCAUCUCUGAGAGAAAUGCC [U9C A42G U62C] | 0.21
15 | UACGUAGGCGGUUUUCCCCUGGUAGUGCUAAGGGGGCCUGGAAGAUUGGACUGGGCAGAGCUCAACACAGCGAGGCAAAGUGGCUGUGGCUAGACUGCCUCUCUGGAUUCCUCGUCACUCAGCAGGGCAUCUCUGAGAGAAAUGCC [U9C A22G U45A U73A] | 1
16 | UACGUAGGCGGUUUUCCCCUGUUAGUGCUAAGGGGGCCUGGAAGUUUGGACUGGGCAGAGCUCAACACAGCGUGGCAAAGUGGCUGUGGCUAGACUGCCUCUCUGGACUCCUCGUCACUCAGCAGGGCAUCUCUGAGAGAAAUGCC [U9C A22U U108C] | 1.56
17 | UACGUAGGCGGUUUUCCCCUGAUAGUGCUAAGGGGGCCUGGAAGUUUGGACUGGGCAGAGCUCGACACAGCGUGGCAAAGUGGCUGUGGCUAGGCUGCCUCUCUGGAUUCCUCGUCACUCAGCAGGGCAUCUCUGAGAGAGAUGCC [U9C A64G A94G A141G] | 0
18 | UACGUAGGCGGUUUUCCCCUGAUAGUGCUAAGGGGGCCUGGAAGUUUGGACUGGGCCGAGCUCAACACAGCGUGGCAAAGUGGCUGUGGCUAGACUGCCUCUCUGGAUUCCUCGUCACUCAGCUGGGCAUCUCUGAGAGAAAUGCC [U9C A57C A124U] | 0.37
19 | UACGUAGGCGGUUUUCCCCUGAUAGUGCUAAGGGGGCCUGGAAGUUUGGGCUGGGCAGAGCUCAACACAGCGUGGCAAAGUGGCUAUGGCUAGACUGCCUCUCUGGUUUCCUCGUCACUCAGCAGGGCAUCUCUGAGAGAAAUGCC [U9C A50G G86A A107U] | 0.06
20 | UACGUAGGCGGUUUUCCCCUGAUAGUGCUAAGGGGGCCUGGGAGUUUGGACUGGGCAGAGCUCAACACAGCGUGGCAAAGUGGCUGUGGCUAGACUGCCUCUCAGGAUUCCUUGUCACUCAGCAGGGCAUCUCUGGGAGAAAUGCC [U9C A42G U104A C113U A136G] | 0.68
